About 120 (0.25%) of roughly 48,000 compounds were called active. Inconclusive results (about 4%) are left out. Calls follow the shape of the dose curve; as a rule, active = well fitted activation curve with a large enough effect; inconclusive = small, poorly fitted or top-dose-only effect, or another doubt; inactive = no such curve, though single readings can be large or run the other way. The list shows a part of the results.
Experiment: Primary qHTS for Identification of Small Molecule Activators of Huntingtin-Antisense Promoter Activity; also: nearly all actives have a fitted effect of over 55% in size
Conditions: HEK293 HTT-AS promoter firefly luciferase reporter (activity 0% = vehicle and -100% = no light), 24 h; series mostly up to 57.5 µM; activity change, positive = activation: at the top concentration
Procedure, shortened: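 HEK293 cells carrying firefly luciferase reporters were seeded at 2,500 per well in Opti-MEM and cultured for 24 h. They were then treated with compounds at up to 57.5 uM final for 24 h at 37 degrees C before Dual-Glo luminescence readout.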

Activity change, positive = activation, inactive:
CC(C)Cn1cnc2c(N)nc3ccccc3c21
CCOC(=O)c1ccc(Oc2nc(C)nc3c2oc2ccccc23)cc1 -18.6%
O=C(/C=C/c1ccccc1)Nc1nc2n(n1)C(c1ccc(Cl)cc1)C=C(c1ccccc1)N2 (centres undefined) -17.8%
Cc1nnsc1C(=O)Oc1ccc(C#N)cc1 -5.34%
O=C(CN1C(=O)C2(SCC(=O)N2c2cccc(F)c2)c2ccccc21)NCc1ccccc1Cl (centres undefined) -15.5%
Clc1ccc(CN2CCc3nc(N4CCN(c5ccccn5)CC4)ncc3C2)cc1 -30.2%
CCc1nc2ccccc2n1CCCCOc1cccc(C)c1 -28.7%
CCOC(=O)c1cc(-c2ccccc2)n(CCCC(=O)Nc2cccc(C)c2)c1C -21.7%
CC(C)(C)c1ccc(S(=O)(=O)c2cnc(SCC(=O)Nc3ccc4c(c3)OCCO4)[nH]c2=O)cc1 -2.78%
CC(C)CC(=O)NCC(c1ccc2c(c1)OCO2)N1CCN(c2ccc(F)cc2)CC1 (centres undefined) -8.61%
Cc1nnc2c3ccccc3nc(Nc3ccccc3C(=O)O)n12 -19.3%
Cc1ccc(NCc2cc3cc4c(cc3n(CC(=O)Nc3ccc(F)cc3F)c2=O)OCCO4)cc1 -3.02%
CCn1ccc2cc(S(=O)(=O)N3CCC(C(=O)NCC(C)c4ccccc4)CC3)ccc21 (centres undefined) -15.9%
CCOc1ccc(S(=O)(=O)NCc2ccc3c(c2)CCN3C(=O)c2ccc(C)cc2)cc1 -41.9%
O=C(COc1ccc(Cl)cc1)Nc1ccc2nc(SCC(=O)N3CCOCC3)sc2c1 -28.5%
Cc1ccc(Cl)cc1NC(=O)c1nnn(Cc2ccccc2)c1N -27.5%
COc1cccc(CNC(=O)C2CCN(Cc3cc4ccccc4n3Cc3ccccc3)CC2)c1OC -20.8%
Cc1ccc(-n2ncc(C(=O)NCc3ccccn3)c2C2CCN(C(=O)OC(C)(C)C)CC2)cc1C -30.3%
Cc1ccc(NC(=O)CSc2nc3ccccc3nc2Cc2ccccc2)c(Cl)c1 -7.99%
Cc1ccc(CN2c3ccccc3-c3nc(SCC(=O)NCCc4ccccc4)ncc3S2(=O)=O)cc1 -3.43%
CCN(CC)CCNC(=O)c1ccc(-c2nc(CN3CCc4ccccc43)c(C)o2)cc1 -26.3%
CCOC(=O)c1cccc(NC(=O)CSc2cc(=O)n(C)c3ccccc23)c1 -34.2%
O=C(Nc1ccc(C(F)(F)F)cc1)c1cc(S(=O)(=O)N2CCCc3ccccc32)ccc1F -73.5%
COc1ccc(-c2nc(CN3CCC(C(=O)NCc4ccc(C)cc4)CC3)c(C)o2)cc1OC -23.8%
CC(=O)OCC(=O)[C@@]1(O)[C@H](OC(C)=O)C[C@H]2[C@@H]3CCC4=CC(=O)C=C[C@]4(C)[C@@]3(F)[C@@H](O)C[C@@]21C 0.853%
CC(C)(C)c1cc(C(=O)O)c(NC(=O)Nc2ccc3[nH]ncc3c2)s1 3.19%
CCOc1ccc(CNC(=O)CCCn2c(=O)c3cccn3c3ccccc32)cc1 -21.1%
COc1ccc(CCNC(=O)C(=O)NCC(c2cccs2)S(=O)(=O)c2cccs2)cc1 (centres undefined) -36.5%
COc1ccc(C(=O)n2nc(-c3cccnc3)nc2NCc2ccccc2)cc1OC 16.9%
CCOc1ccccc1Nc1nc2ccccc2nc1NS(=O)(=O)c1ccc(Cl)cc1 -26.3%
COc1ccccc1CNc1ncnc2onc(-c3ccc(F)cc3)c12 7.57%
CC(=O)N1CCCc2cc(S(=O)(=O)N3CCC(C(=O)Nc4c(C)cccc4C)CC3)ccc21 -47%
COc1cccc2c1cc1c(=O)n(CC(=O)N3CCN(c4ccc(F)cc4)CC3)nc(C)n12 -16%
COc1ccc2nc(SCC(O)c3cccc(Br)c3)[nH]c2c1 (centres undefined) -3.18%
CCCS(=O)(=O)c1nc(S(=O)(=O)c2ccc(C)cc2)c(NCCCOC(C)C)s1 -20.3%
Cc1ccc(Sc2ccc(N3CCCC(C(=O)Nc4ccc(F)cc4)C3)nn2)cc1 (centres undefined) -30.3%
CCN(CC)C(=O)CSc1nc2cc3c(cc2c(=O)n1CCCC(=O)NCc1ccc2c(c1)OCO2)OCO3 -20.3%
COc1ccc(-c2cn3c(n2)sc2cc(C(=O)NCCCc4ccccc4)ccc23)cc1 8.17%
O=C(Cn1nc(N2CCN(c3ccccc3)CC2)ccc1=O)NCc1ccccc1F -10.9%
CCOc1ccc(NC(=O)c2cn(C3CCCCC3)c(=O)c3c2c2ccccc2n3C)cc1 -6.85%
Cc1cccc(C(=O)Nc2ccccc2OCc2cc(=O)n3ccccc3n2)c1 -2.72%
Cc1ccc(-c2nnc(SCC(=O)NC(C)(C)C)nc2-c2ccc(C)cc2)cc1 -24.8%
Cn1c(=O)c2c(nc(NCCc3ccccc3)n2Cc2ccccc2Br)n(C)c1=O -5.11%
CCOc1ccc(C(=O)N(Cc2nc(-c3cccc(C)c3)no2)C(C)C)cc1 -11.1%
COc1ccc2c(c1)c(CC(=O)Nc1cc(C)cc(C)c1)c(C)n2C(=O)c1ccc(Cl)cc1 -10.9%
CCOc1cc(S(=O)(=O)NCCc2c(C)[nH]c3ccc(C)cc23)ccc1F -18.8%
O=C(NCc1ccccc1)c1cnc2sc(N3CCCC3)nn2c1=O -5.7%
CCN(CC)C(=O)c1sc2c(c1C)c(=O)n(Cc1ccccc1)c(=O)n2Cc1cc(C)ccc1C -36.8%
COc1ccc(C)cc1NC(=O)c1sc2nc(-c3ccc(F)cc3)cn2c1C 18.9%
O=C1CCCC2=C1C(c1[nH]ncc1Cl)N=C(Nc1nc3ccccc3o1)N2 (centres undefined) -5.99%
Cc1cc(C)c2oc(C(=O)Nc3ccc(S(=O)(=O)Nc4ncccn4)cc3)cc(=O)c2c1 -2.17%
O=C(CCCn1ncn2c(cc3occc32)c1=O)NCc1ccccc1F -11.3%
Cc1cc2c(cc1S(=O)(=O)C(C)CC(=O)NC1CCC(C)CC1)OCC(=O)N2 (centres undefined) -4.48%
O=C(Nc1ccccc1C(F)(F)F)c1cc2nc(-c3ccccc3)cc(-c3ccccc3)n2n1 -6.49%
COc1ccccc1NC(=O)c1sc(-c2ccc(Cl)cc2)cc1N 3.73%
CCc1ccc2c(c1)NC(c1ccc(F)cc1)=NC(c1ccncc1)=N2 6.33%
CCc1nnc(SCc2cccc(Cl)c2)c2cc3sccc3n12 -21.4%
Cc1cc(C)c(NC(=O)CSc2nc3nccnc3c(=O)n2CCc2c[nH]c3ccccc23)c(C)c1 -10.1%
CCOc1cccc(C(=O)Nc2ccc3oc(-c4ccncc4)nc3c2)c1 -24.5%
COc1cc(OC)c(NS(=O)(=O)c2c(C)nc3sc(C)cn3c2=O)cc1Cl -38.3%
COc1ccc(-c2cc(OC(=O)c3ccccc3Cl)c3c(C)oc(C)c3c(=O)c2)cc1OC -24.7%
COc1ccc2c(CNC3CCCCCC3)c(C(=O)O)n(Cc3ccc(C)cc3)c2c1 -36.3%
COc1ccc(CNC(=O)CN2C(=O)COc3ccc(S(=O)(=O)N4CCCCC4)cc32)cc1 -4.75%
CN(C)c1ccc(-c2nc3ncc(Cl)c(N4CCN(CC(=O)Nc5nccs5)CC4)c3[nH]2)cc1 14.2%
Cc1cc(F)ccc1NC(=O)Cn1nc(N2CCN(c3ccccc3)CC2)ccc1=O -24.2%
Cc1ccc(Cn2c(C)c3cnn(CC(=O)O)c(=O)c3c2C)cc1 1.82%
O=C(Cn1cc(SCc2ccc(F)cc2)c2ccccc21)N1CCCCC1 4.94%
CCCSc1oc(-c2cccs2)nc1S(=O)(=O)c1ccc(C)cc1 -15.3%
O=C(Nc1cccc(C(=O)OCc2cc(=O)n3c4c(sc3n2)CCCC4)c1)c1ccc(Cl)cc1 -26.2%
COc1ccc(NC(=O)Cn2c(=O)n(CCCCCC(=O)NCc3ccc4c(c3)OCO4)c(=O)c3sccc32)cc1Cl -60.4%
COc1cccc(N2CCN(C(=O)Cn3nc(C)n4c(cc5c(OC)cccc54)c3=O)CC2)c1 1.71%
COC(=O)c1c(NC(=O)COc2ccc(Cl)cc2)sc(C)c1C -0.24%
COCc1cc(C)nc2c1C(=O)NC(c1ccc(Br)cc1)N2Cc1ccccc1 (centres undefined) -12.7%
COc1cc(Cl)c(C)cc1NC(=O)Cn1c2ncccc2c(=O)n1-c1ccccc1 -6.11%
CCc1ccc(-n2nnc(-c3nc(-c4ccc(C)cc4)no3)c2N)cc1 -1.9%
COc1ccc(Cl)cc1C(=O)NCc1nnnn1-c1ccccc1 1.6%
CCc1ccc(NC(=O)C(=O)NCC(c2cccnc2)N2CCc3ccccc3C2)cc1 (centres undefined) -57.8%
COc1nnc(-c2ccc(N3CCCCC3)c(NC(=O)c3ccccc3Cl)c2)c2ccccc12 -87%
O=C(Nc1sc2c(c1C(=O)NCc1ccccc1)CCCC2)c1cc(=O)c2ccccc2o1 -16%
O=C(NCc1ccc(Cl)cc1)C1CCN(c2ncnc3c2nc2n3CCCCC2)CC1 -6.41%
CCOc1ccccc1C(=O)NCC(c1cccs1)S(=O)(=O)c1ccc(F)c(C)c1 (centres undefined) -7.84%
CCc1ccc(NC(=O)CSc2nc3c(c(=O)[nH]2)CN(Cc2ccc(C)cc2)CC3)cc1 -23.5%
Cc1ccc(C)c(N2CCN(C(=O)c3ccc4c(=O)n(CCc5ccccc5)c(=O)[nH]c4c3)CC2)c1 -14.9%
CCCSCCCNC(=O)CN1C(=O)COc2ccc(S(=O)(=O)N3CCCC3)cc21 -6.76%
COc1cc(NC(=O)C2=CC(c3ccco3)=NS(=O)(=O)N2C)cc(OC)c1OC -12.5%
CCOC(=O)c1[nH]c2c(c1Cc1ccccc1OC)C(=O)CC(c1ccccc1)C2 (centres undefined) -36.6%
CCCCn1c(=O)c2oc3ccccc3c2n(Cc2ccccc2C)c1=O -11.6%
O=C(COc1ccc(F)cc1)Nc1ccccc1C(=O)OCc1cc(=O)n2ccsc2n1 23.7%
Cc1nc(-c2ccccc2)sc1CCNC(=O)C(=O)Nc1ccc(F)c(Cl)c1 -13.2%
CCOc1ccc(-c2nonc2NC(=O)c2oc3ccc(C)cc3c2C)cc1OCC -0.495%
COc1ccc(Cn2ccn(Cc3cccc(Cl)c3)c(=O)c2=O)cc1 -12.9%
Cc1ccc(S(=O)(=O)Cc2nc(-c3ccc(C(=O)NCc4ccccc4C)cc3)oc2C)cc1 -25.4%
CCCn1cc(S(=O)(=O)c2ccc(OC)cc2)c(=O)c2cc(F)c(N3CCCC(C)C3)cc21 (centres undefined) -28.7%
CC(=O)c1ccc(NC(=O)C2=CC(c3ccc(C)cc3)=NS(=O)(=O)N2C)cc1 -30.8%

— PubChem BioAssay AID1508624 (National Center for Advancing Translational Sciences (NCATS), 2021)
